This is one part of the list. The full chains were built here from the parent and the listed change. Inactive controls read about 0.05.
B1: TEV protease; numbered along this chain (parent)
chain: MGESLFKGPRDYNPISSSICHLTNESDGHTTSLYGIGFGPFIITNKHLFRRNNGTLVVQSLHGVFKVKDTTTLQQHLVDGRDMIIIRMPKDFPPFPQKLKFREPQREERICLVTTNFQTKSMSSMVSDTSCTFPSGDGIFWKHWIQTKDGQCGSPLVSTRDGFIVGIHSASNFTNTNNYFTSVPKNFMELLTNQEAQQWVSGWRLNADSVLWGGHKVFMVKPEEPFQPVKEATQL

Variants of: B1
Assay: raw area under fraction-flipped curve 0-4 h after induction (AUC4h, not background-subtracted), DNA-recorder readout of cleavage of the substrate (dimensionless); higher = more cleavage of the substrate by the protease variant
Conditions: temperature: 34 °C; time window: 0-4 h after rhamnose induction
Experimental: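 In vivo DNA recorder in E. coli TOP10(DE3) ΔrhaA at 34 °C. Each TEVp single-site mutant (parent TEVp 0) is paired with a single-site variant of the 7-mer TEVs (canonical ENLYFQ|S). The substrate sits between flexible linkers in a Bxb1-sfGFP-TEVs-SsrA fusion, so cleavage stabilises Bxb1 and speeds flipping of a recombination array, read by NGS. The value is the raw area under the fraction-flipped curve over 0-4 h after rhamnose induction (AUC4h), with ≥20 reads per time point. It is not background-subtracted; inactive controls average about 0.047.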
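Also: Bxb1 expression induced with 0.2% (w/v) L-rhamnose at OD600 near 0.5, cultures sampled hourly, flipped fraction per protease–substrate barcode pair counted by paired-end Illumina sequencing.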

| Variant | area with substrate ENLYFAS | area with substrate ENLYFES | area with substrate ENLYFFS | area with substrate ENLYFIS | area with substrate ENLYFKS | area with substrate ENLYFMS | area with substrate ENLYFNS | area with substrate ENLYFPS | area with substrate ENLYFSS | area with substrate ENLYFVS | area with substrate ENLYFYS | area with substrate ENLYFCS | area with substrate ENLYFDS | area with substrate ENLYFHS | area with substrate ENLYFLS | area with substrate ENLYFRS | area with substrate ENLYFTS | area with substrate ENLYFWS | area with substrate ENLYFGS |
| --- | --- | --- | --- | --- | --- | --- | --- | --- | --- | --- | --- | --- | --- | --- | --- | --- | --- | --- | --- |
| T55G | 0.0496 | 0.0568 | 0.0642 | 0.055 | 0.0566 | 0.0539 | 0.0508 | 0.0532 | 0.065 | 0.0601 | 0.0633 |  |  |  |  |  |  |  |  |
| L56D | 0.0447 | 0.0568 | 0.048 | 0.0427 | 0.0498 | 0.0395 | 0.0346 | 0.0398 | 0.0471 | 0.0451 | 0.0409 | 0.0311 | 0.0353 | 0.0558 | 0.0404 | 0.0441 | 0.0417 | 0.0416 |  |
| L56V | 0.0636 | 0.0527 | 0.0663 | 0.0579 | 0.0503 | 0.0632 | 0.0575 | 0.0589 | 0.0829 | 0.0525 |  |  | 0.0572 | 0.0579 |  |  | 0.0597 | 0.0637 | 0.0725 |
| V57G | 0.0589 | 0.0563 | 0.0666 | 0.0619 | 0.0575 |  | 0.056 | 0.0602 |  | 0.0544 | 0.0531 |  | 0.0815 |  |  | 0.0493 | 0.054 | 0.0404 | 0.0641 |
| V57W | 0.05 | 0.0639 | 0.075 | 0.0536 | 0.0635 | 0.0631 | 0.0569 | 0.0564 | 0.0569 | 0.0755 | 0.0609 | 0.0628 |  | 0.0448 | 0.0574 | 0.0616 | 0.0642 | 0.0534 |  |
| H62D | 0.0435 | 0.0681 | 0.0571 | 0.0594 | 0.0726 | 0.0645 | 0.0664 | 0.0492 | 0.0576 | 0.0559 | 0.0576 | 0.0363 | 0.0634 | 0.067 | 0.0601 | 0.0626 | 0.0541 | 0.0695 | 0.0492 |
| H62F | 0.0534 | 0.0629 | 0.0618 | 0.0559 |  | 0.0801 | 0.0691 | 0.0614 | 0.0642 |  | 0.0537 | 0.0712 |  | 0.0525 |  |  | 0.0646 | 0.0633 |  |
| H62V | 0.0337 | 0.0731 |  | 0.0479 | 0.0582 | 0.0702 | 0.0568 | 0.0593 |  | 0.073 |  | 0.064 |  |  | 0.0538 | 0.0375 | 0.0489 | 0.0506 | 0.056 |
| G63Q | 0.0601 | 0.0672 | 0.062 | 0.0476 | 0.0521 | 0.0507 | 0.071 | 0.0679 | 0.0525 |  | 0.0504 | 0.0628 | 0.0556 | 0.0644 |  |  | 0.0221 |  |  |
| F65W | 0.0165 | 0.0278 | 0.0646 | 0.0579 | 0.058 | 0.0636 | 0.0765 | 0.0594 |  |  | 0.0495 | 0.0488 |  |  | 0.0624 | 0.045 | 0.0614 | 0.037 | 0.045 |
| K66P | 0.0653 | 0.055 |  | 0.0495 | 0.064 | 0.0522 | 0.0317 | 0.0927 | 0.0534 | 0.0202 | 0.0575 | 0.0456 |  | 0.0043 | 0.0531 | 0.0923 | 0.0469 | 0.0388 | 0.0546 |
| V67D | 0.047 | 0.0523 | 0.0462 | 0.043 | 0.0456 | 0.0492 |  | 0.0476 | 0.0439 | 0.0452 | 0.0304 | 0.0558 | 0.0497 | 0.0483 |  | 0.05 | 0.0557 | 0.0508 |  |
| V67L | 0.0596 |  |  | 0.0614 | 0.0608 | 0.0612 | 0.0927 | 0.0568 |  |  | 0.0641 |  |  | 0.0591 | 0.0534 |  | 0.0548 |  |  |
| V67T | 0.0641 | 0.0568 | 0.0593 | 0.0487 |  | 0.0745 | 0.0612 | 0.0546 |  |  | 0.0284 |  |  | 0.0651 |  | 0.0293 | 0.0368 | 0.0523 | 0.0726 |
| K68T | 0.0588 | 0.0433 |  | 0.0631 | 0.0647 | 0.079 | 0.0619 | 0.0409 |  |  | 0.0378 |  | 0.0418 | 0.0372 |  | 0.0576 | 0.0671 | 0.0511 | 0.062 |
| D69L | 0.0449 |  | 0.069 | 0.0622 | 0.062 | 0.0652 | 0.0491 | 0.0556 |  | 0.0693 | 0.0742 | 0.05 | 0.0543 | 0.0656 |  | 0.0647 | 0.0559 | 0.0583 |  |
| D69W | 0.0502 | 0.0505 | 0.0818 | 0.0483 |  | 0.0378 |  | 0.0685 |  | 0.0418 | 0.0476 | 0.0476 |  | 0.0588 | 0.0766 |  | 0.0615 |  |  |
| T71C | 0.0594 | 0.0544 | 0.0622 | 0.0697 |  | 0.0612 | 0.0553 | 0.0537 | 0.0515 | 0.0676 |  | 0.0504 |  |  |  | 0.0419 | 0.0591 |  |  |
| T71L | 0.0515 | 0.062 | 0.0588 | 0.0387 | 0.069 |  | 0.0469 |  |  | 0.0605 | 0.0452 | 0.068 |  | 0.043 |  |  | 0.0497 |  | 0.0954 |
| T71W | 0.0521 |  |  | 0.0493 |  | 0.0646 |  | 0.0464 | 0.0608 | 0.0542 | 0.0544 |  | 0.0177 | 0.0651 | 0.0592 |  |  |  | 0.0606 |
| T72D | 0.0494 | 0.0655 | 0.0695 | 0.0529 | 0.0701 | 0.0627 | 0.0643 | 0.0595 |  | 0.0523 |  | 0.0618 | 0.0508 |  | 0.0358 | 0.0673 | 0.0639 |  | 0.0565 |
| L73Y | 0.0568 | 0.0522 | 0.0534 | 0.0557 | 0.0652 | 0.0613 | 0.0512 | 0.0568 | 0.0811 | 0.0637 | 0.0505 | 0.0477 | 0.0573 | 0.052 | 0.0512 |  | 0.0513 | 0.0433 | 0.0224 |
| Q75C | 0.0572 | 0.0677 | 0.0378 | 0.0538 |  | 0.0633 |  | 0.0617 | 0.0539 |  |  | 0.0723 | 0.0552 | 0.0486 | 0.0491 |  | 0.0693 |  | 0.0403 |
| L77N | 0.0651 | 0.0583 | 0.0652 | 0.0636 | 0.0543 | 0.0546 | 0.0502 | 0.0582 |  |  | 0.0563 | 0.0554 | 0.0422 |  | 0.0532 | 0.0652 |  |  |  |

— the supplement of paper PMC12217912
